{"source": "PubChem BioAssay AID1347073", "about": "(National Center for Advancing Translational Sciences (NCATS), 2019)", "note": "Hit rate of the full screen: of about 45,000 compounds, about 200 (0.44%) were called active. About 7% were inconclusive and are not listed. Calls come from the whole dose curve; as a rule, active = well fitted activation curve with a large enough effect; inconclusive = small, poorly fitted or top-dose-only effect; inactive = no such curve, though single readings can be large or run the other way. Some of the results follow.", "data": [{"experiment": "qHTS of TDP-43 Inhibitors: NCGC Sytravon Library Screen; note: 0% is about no effect; nearly all actives have a fitted effect of over 55% in size", "details": "yeast TDP-43 toxicity rescue, BacTiter-Glo growth, 24 h; series mostly up to 46.1 µM; growth rescue (activation): at the top concentration", "method_in_brief": "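TDP-43-expressing yeast, pregrown in raffinose, seeded at OD600 0.02 in galactose medium with compound for 24 hr at 30 deg C. Growth read by BacTiter-Glo luminescence, so rescue of toxicity appears as activation.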", "values": [{"smiles": "CCN1CCN(C(=O)c2cc(=O)c3cc(C)ccc3o2)CC1", "growth rescue (activation)": "inactive: -10.7%"}, {"smiles": "O=C(O)CNC(=S)N(Cc1ccccc1Cl)C1CCCCC1", "growth rescue (activation)": "inactive: -2.09%"}, {"smiles": "Cc1cccc(OCC(=O)N/N=C/c2sc(=O)n(Cc3cccc(C(=O)O)c3)c2Cl)c1", "growth rescue (activation)": "inactive: -11.2%"}, {"smiles": "O=C(Nc1nnc([C@@H]2C[C@H](O)[C@@H](CO)O2)s1)Nc1ccc(F)cc1F", "growth rescue (activation)": "inactive: -2.21%"}, {"smiles": "CCCn1c(N)c(N(CCOC)C(=O)c2ccc(Cl)c([N+](=O)[O-])c2)c(=O)[nH]c1=O", "growth rescue (activation)": "inactive: 3.02%"}, {"smiles": "Cc1c(Cl)cccc1NC(=S)NC1CC1", "growth rescue (activation)": "inactive: 15.3%"}, {"smiles": "C=CCNC(=O)c1cc2c(=O)c3ccccc3oc2nc1C", "growth rescue (activation)": "inactive: 14.8%"}, {"smiles": "COc1ccc(-c2cc(C(F)F)n3ncc(C(=O)N4CCCc5ccccc54)c3n2)cc1", "growth rescue (activation)": "inactive: 5.3%"}, {"smiles": "CSc1ccc(C(=O)C2CCCN(C(=O)CCc3cnn(C)c3)C2)cc1", "note": "(stereo not drawn)", "growth rescue (activation)": "inactive: 27.5%"}, {"smiles": "O=C(COC(=O)C1CCN(S(=O)(=O)c2cccc3cccnc23)CC1)c1ccccc1", "growth rescue (activation)": "inactive: 14.4%"}, {"smiles": "COC(=O)C1CN(C(=O)C(C)Oc2ccccc2Cl)c2ccccc2O1", "note": "(stereo not drawn)", "growth rescue (activation)": "inactive: 19.3%"}, {"smiles": "Cc1ccc(NC2=NCC(=O)N2Cc2ccc3c(c2)OCO3)cc1", "growth rescue (activation)": "inactive: 7.24%"}, {"smiles": "COc1ccc(C(=O)NCC(=O)OCC(=O)N2CC(C)OC(C)C2)cc1OC", "note": "(stereo not drawn)", "growth rescue (activation)": "inactive: 12.1%"}, {"smiles": "Cc1cc(Cl)c2ccc(Cl)cc2n1", "growth rescue (activation)": "inactive: -0.813%"}, {"smiles": "CS(=O)(=O)N1CCCC(C(=O)Nc2ccc(F)cc2F)C1", "note": "(stereo not drawn)", "growth rescue (activation)": "inactive: -9.87%"}, {"smiles": "COc1ccc(NC(=S)N2CCN(C/C=C/c3ccccc3)CC2)cc1", "growth rescue (activation)": "inactive: -6.46%"}, {"smiles": "CCOc1ncccc1C(=O)OCc1c(Cl)cccc1Cl", "growth rescue (activation)": "inactive: 9.66%"}, {"smiles": "O=C(Oc1ccc(-c2cnc3ccccc3n2)cc1)c1cccc([N+](=O)[O-])c1", "growth rescue (activation)": "inactive: 18.9%"}, {"smiles": "N#CCCN(/N=C/c1cccnc1)C1=NS(=O)(=O)c2ccccc21", "growth rescue (activation)": "inactive: -5.55%"}, {"smiles": "COCCCN(C(=S)Nc1ccc(C)cc1Cl)C(C)c1ccncc1", "note": "(stereo not drawn)", "growth rescue (activation)": "inactive: 14%"}, {"smiles": "CCn1cc(CN2CCC(n3nccc3NC(=O)c3ccccc3C)CC2)cn1", "growth rescue (activation)": "inactive: 3.59%"}, {"smiles": "O=C1NC(=O)/C(=C\\c2ccccc2OCc2ccccc2)S1", "growth rescue (activation)": "inactive: 12.7%"}, {"smiles": "CC(NC(=O)c1ccccc1)c1nnc(SCc2nc3ccccc3c(=O)[nH]2)n1C", "note": "(stereo not drawn)", "growth rescue (activation)": "inactive: -3.34%"}, {"smiles": "CCn1c(C)nc2cc(C(=O)NNC(=O)[C@@H](NC(=O)c3cc(OC)cc(OC)c3)C(C)C)ccc21", "growth rescue (activation)": "inactive: 3.9%"}, {"smiles": "O=C(Nc1ccccn1)c1ccc2c(c1)OCCO2", "growth rescue (activation)": "inactive: -29%"}, {"smiles": "COc1ccc(N2C(=O)c3ccc(C(=O)Nc4ccc(NC(C)=O)cc4)cc3C2=O)cc1", "growth rescue (activation)": "inactive: -15%"}, {"smiles": "Cc1ccn2cc(CC(=O)O)nc2c1", "growth rescue (activation)": "inactive: -11.3%"}, {"smiles": "CNc1ccccc1C(C)(C)c1ccn[nH]1", "growth rescue (activation)": "inactive: -2.01%"}, {"smiles": "CN(C)c1cccc(C(=O)OCC(=O)N(Cc2ccccc2)C2CCS(=O)(=O)C2)c1", "note": "(stereo not drawn)", "growth rescue (activation)": "inactive: 1.43%"}, {"smiles": "Brc1cc2c(cc1-c1nc3ccccc3s1)OCO2", "growth rescue (activation)": "inactive: 6.44%"}, {"smiles": "Cc1[nH]nc2c1C(c1ccoc1)C(C#N)=C(N)O2", "note": "(stereo not drawn)", "growth rescue (activation)": "inactive: 5.87%"}, {"smiles": "COc1ccc(Cl)cc1N(C(C)C(=O)O)S(C)(=O)=O", "note": "(stereo not drawn)", "growth rescue (activation)": "inactive: 7.89%"}, {"smiles": "c1csc(CNCc2ccncc2)c1", "growth rescue (activation)": "inactive: -3.01%"}, {"smiles": "CC(=O)Nc1cccc(-c2cnc(NC(C)=O)cn2)c1", "growth rescue (activation)": "inactive: -22.8%"}, {"smiles": "CCN(CC)C(=O)C1(P(=O)(c2ccccc2)c2ccccc2)CCC1", "growth rescue (activation)": "inactive: -3.76%"}, {"smiles": "CC(C)c1ccccc1NC(=O)Nc1nnc([C@H]2C[C@H](O)[C@@H](CO)O2)s1", "growth rescue (activation)": "inactive: -5.14%"}, {"smiles": "C#CC(C)(CC)NC(=O)Cn1nnc(-c2cccc(C(F)(F)F)c2)n1", "note": "(stereo not drawn)", "growth rescue (activation)": "inactive: -2.93%"}, {"smiles": "CC(C)NC(=O)C1(C)CCCN1Cc1ccccc1C#N", "note": "(stereo not drawn)", "growth rescue (activation)": "inactive: 4.38%"}, {"smiles": "O=C(NCc1ccc2c(c1)OCO2)c1cc(-c2ccncc2)nc2ccccc12", "growth rescue (activation)": "inactive: 13.9%"}, {"smiles": "CCn1cc(CNCc2cn[nH]c2-c2cc3ccccc3o2)cn1", "growth rescue (activation)": "inactive: 0.743%"}, {"smiles": "CN(C(=O)Cn1cc(C(F)(F)F)ccc1=O)c1c(N)n(Cc2ccccc2)c(=O)[nH]c1=O", "growth rescue (activation)": "inactive: 34.9%"}, {"smiles": "O=C(COC(=O)c1cc(-c2cccs2)nn1-c1ccccc1)Nc1cccc([N+](=O)[O-])c1", "growth rescue (activation)": "inactive: 3.19%"}, {"smiles": "COc1cc(C(C)=O)ccc1OCCCOc1cccc2cccnc12", "growth rescue (activation)": "inactive: 17.1%"}, {"smiles": "COc1ccc(/C=C(/NC(=O)c2cccs2)C(=O)Nc2ccc(C)cc2)cc1OC", "growth rescue (activation)": "inactive: 13.8%"}, {"smiles": "COc1ccc(NS(=O)(=O)c2cc(C(=O)NNC(=O)c3ccncc3)ccc2OC)c(OC)c1", "growth rescue (activation)": "inactive: -9.55%"}, {"smiles": "CCOC(CCNC(=O)c1cn(CC(C)C)c(=O)c2c1c1ccccc1n2C)OCC", "growth rescue (activation)": "inactive: 3.11%"}, {"smiles": "COc1cc2c(c(OC)c1OC)-c1ccc(N(C)CC(OC)OC)c(=O)cc1[C@@H](NC(C)=O)CC2", "growth rescue (activation)": "inactive: 11.6%"}, {"smiles": "Cc1sc2ncn(CC(=O)NCC3COc4ccccc4O3)c(=O)c2c1S(=O)(=O)N1CCOCC1", "note": "(stereo not drawn)", "growth rescue (activation)": "inactive: -7.25%"}, {"smiles": "Clc1cccc(N2CCN(c3nc4ccccc4n4nnnc34)CC2)c1", "growth rescue (activation)": "inactive: 5.07%"}, {"smiles": "O=C(CSc1nnc(-c2cnccn2)n1Cc1ccco1)Nc1ccc(Br)cc1", "growth rescue (activation)": "inactive: -4.45%"}, {"smiles": "C=CCn1c(SCC(=O)c2[nH]c(C)c(C(=O)OCC)c2C)nc2scc(-c3ccc(OC)c(OC)c3)c2c1=O", "growth rescue (activation)": "inactive: -13.3%"}, {"smiles": "CC(C)Nc1nc(NCCN2CCNC2=O)c2sccc2n1", "growth rescue (activation)": "inactive: 14.6%"}, {"smiles": "COc1ccc(NC(=O)CN(C)C(=O)c2ccc3ccccc3n2)cc1", "growth rescue (activation)": "inactive: -2.95%"}, {"smiles": "Cc1cc(N2CCOCC2)nc2ccc(NC(=S)NCCN(C)C)cc12", "growth rescue (activation)": "inactive: 3.07%"}, {"smiles": "COc1ccc(C(=O)N[C@H](C(=O)NCc2ccccc2)C(C)C)cc1", "growth rescue (activation)": "inactive: -2.72%"}, {"smiles": "O=[N+]([O-])c1cccc(/C=N/Nc2nc(N3CCCCC3)nc(N3CCCCC3)n2)c1", "growth rescue (activation)": "inactive: 9.46%"}, {"smiles": "N#Cc1cccc(NC(=O)Cc2ccsc2)c1", "growth rescue (activation)": "inactive: 8.13%"}, {"smiles": "COc1ccc(NC(=S)N2CCC(NC(=O)C3CCCCC3)CC2)cc1", "growth rescue (activation)": "inactive: -10.2%"}, {"smiles": "CC(=O)Nc1cccc(C(=O)NC(C)c2ccc(S(N)(=O)=O)cc2)c1", "note": "(stereo not drawn)", "growth rescue (activation)": "inactive: 8.04%"}, {"smiles": "CCCn1c(=N)n(CC(O)COc2ccccc2OC)c2ccccc21", "note": "(stereo not drawn)", "growth rescue (activation)": "inactive: 4.92%"}, {"smiles": "CCc1nc2ccc(C(=O)Nc3cc(-c4ccccc4)ccc3OC)cn2c1N(C)Cc1nccs1", "growth rescue (activation)": "inactive: 2.22%"}, {"smiles": "Clc1ccc2nc3c4ccccc4cnn3c2c1", "growth rescue (activation)": "inactive: -0.0143%"}, {"smiles": "O=C(N/N=C/c1coc2ccccc2c1=O)c1cn(-c2ccccc2)nc1-c1ccccc1", "growth rescue (activation)": "inactive: 6.06%"}, {"smiles": "Cc1ccc(NC(=O)CN2C(=O)NC3(CCCC3)C2=O)c(Cl)c1", "growth rescue (activation)": "inactive: -0.733%"}, {"smiles": "Cc1cccc(NC(=S)Nc2ccc(N3CCOCC3)cc2)c1C", "growth rescue (activation)": "inactive: 17.7%"}, {"smiles": "CN1CCN(c2ccc(NC(=O)c3cc([N+](=O)[O-])ccc3N3CCOCC3)cc2)CC1", "growth rescue (activation)": "inactive: -16.7%"}, {"smiles": "CCOC(=O)C1(CCOc2ccccc2)CCN(Cc2cccn2-c2cccnc2)CC1", "growth rescue (activation)": "inactive: -3.5%"}, {"smiles": "CCC(=O)Nc1cc(-c2cc3ccccc3oc2=O)ccc1OC", "growth rescue (activation)": "inactive: -4.14%"}]}]}
